SMILES strings stand for the structures. In all, about 340,000 compounds went through this assay and about 6,900 (2%) were called active. Cut-off read from the data, not from the text of the source: active = inhibition above about 30%; inactive = below that, where a call was filed. Only a part is listed here, and it is no random draw. Where no call is shown, the source filed none.

The target of the test is D(2) dopamine receptor (Homo sapiens) (UniProt P14416). The test is described as follows: HTS Assay for Allosteric Antagonists of the Human D2 Dopamine Receptor: Primary Screen for Antagonists. Note: 0% is about no effect. Particulars: HEK293 TREx D2 cells, calcium flux, dopamine EC80; at 10 µM; stronger effect = higher value. An excerpt: NIH Chemical Genomics Center [NCGC] NIH Molecular Libraries Probe Centers Network [MLPCN] MLPCN Grant: NS064831-01 Assay Submitter (PI): David Sibley Dopamine receptors (DARs) are involved in the etiology and/or therapy of a number of neuropsychiatric and endocrine disorders. For instance, all receptor-based antiparkinsonian drugs work via stimulating the D2 DAR subtype whereas all FDA-approved antipsychotic agents are antagonists of this receptor. […] There are three different types of allosteric modulators that we are seeking, two of which will stimulate or augment receptor signaling, allosteric agonists and potentiators, while the third, allosteric antagonists, will attenuate receptor signaling. The present primary screening assay measures compound antagonism after an EC80 addition of dopamine by tracking calcium flux in a […], inducible Hek293 Trex D2 cell line.
UniProt P14416, sequence (P14416 whole entry, looked up): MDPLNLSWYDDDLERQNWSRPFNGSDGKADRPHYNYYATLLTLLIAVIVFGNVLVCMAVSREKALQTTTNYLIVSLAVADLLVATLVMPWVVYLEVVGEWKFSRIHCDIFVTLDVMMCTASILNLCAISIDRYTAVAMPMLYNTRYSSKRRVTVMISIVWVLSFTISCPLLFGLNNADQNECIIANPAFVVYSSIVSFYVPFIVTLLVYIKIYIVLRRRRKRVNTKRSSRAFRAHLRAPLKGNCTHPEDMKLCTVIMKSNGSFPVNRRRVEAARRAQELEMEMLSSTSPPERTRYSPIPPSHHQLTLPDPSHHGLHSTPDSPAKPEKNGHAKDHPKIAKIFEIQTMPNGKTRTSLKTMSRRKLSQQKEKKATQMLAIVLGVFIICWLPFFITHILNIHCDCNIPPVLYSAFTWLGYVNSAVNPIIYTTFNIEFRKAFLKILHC
Freshly passaged cells are plated in 1536 well black, clear bottom plates at a density of 4000 cells/well in 3 ul of complete media containing 1x tetracycline inducer. After an overnight incubation at 30 C in 5% CO2, cells are loaded with 2 ul of the no wash Calcium Assay Kit (ABD Bioquest) and incubated at room temperature for 30 to 90 minutes. Agonist read: A 10 cycle (1 second/cycle) baseline measurement is taken and then the FDSS online 1536 pintool delivers 23 nl of compound library (as well as dopamine controls) to the plate. The plate is measured for kinetically at 1 cycle/sec for 180 seconds. Following the 180 second read, 1 ul of an EC80 (negative modulation assay) is delivered by an onboard pipette head. Measurements are taken kinetically for an additional 180 seconds.
(In general: Calcium assays in cells follow changes in intracellular calcium, usually with a dye or a luminescent sensor.)
For the compound `CCOc1ccc(NC(=O)c2cc(S(=O)(=O)N3CCN(c4ccccc4F)CC3)ccc2F)cc1`, the inhibition (commonly the relative decrease from the control value, in per cent) came out at 0.689%.

For the compound `Cc1ccc2[nH]c(=O)c3cc(C(=O)NC4CCC(C)CC4)sc3c2c1` (centres undefined), the inhibition was -19.4%. Next, `CCCCN(C)C(=O)CSc1nc2ccccc2nc1Cc1ccc(C)cc1`: 21.8%; `O=c1cc(-c2ccccc2)n2c(SCc3ccccc3Cl)nnc2[nH]1`: -2.16%; `CCOc1ccc(Nc2c(S(=O)(=O)c3ccc(C)cc3)cnc3ccc(F)cc23)cc1`: -3.02%. With `COc1cccc(CNC(=O)c2nc(Cn3nc(C)c(Br)c3C)no2)c1`, the inhibition is -6.6%.

As for `COc1ccccc1CNC(=O)C(=O)NCC(c1cccs1)S(=O)(=O)c1cccs1` (centres undefined), the inhibition was -6.33%. Next, `O=C(Cn1ncc2c3ccccc3n(Cc3cccc(Cl)c3)c2c1=O)Nc1ccc(F)cc1F`: -1.21%; `COc1cc(CNC(=O)c2ccc3c(c2)c(C)c(C)n3Cc2cccc(C)c2)cc(OC)c1OC`: 3.11%. For `CCN(CC)C(=O)c1sc2c(c1C)c(=O)n(CCc1ccccc1)c(=O)n2Cc1cc(C)ccc1C`, the inhibition came to 4.7%.

As for `COc1ccccc1N1CCN(S(=O)(=O)/C=C/c2ccccc2)CC1`, the inhibition was active: 53.6%. On to `O=C(CSc1nnc(-c2cccs2)o1)Oc1ccccc1Cl`, for which the inhibition amounted to 12.8%. Consider `CC(C)(C)C(=O)NCC(c1ccc2c(c1)OCO2)N1CCOCC1` (centres undefined), for which the inhibition is -19.1%. On to `COc1cccc(N2CCN(C(=O)c3cc4c(s3)-c3ccccc3OC4)CC2)c1`, for which the inhibition was found to be 0.128%.

On to `Cc1cccc(C)c1NC(=O)C(NS(=O)(=O)c1cccs1)c1ccccc1` (centres undefined), for which the inhibition is -0.35%. Next, `O=C(NCCc1ccc(Cl)cc1)c1ccc(CS(=O)(=O)c2ccc(Cl)cc2)o1`: -11.7%; `O=C(Cn1ccn(-c2ccc(F)cc2)c(=O)c1=O)Nc1ccc(F)cc1`: 8.21%; `COc1cccc(N2CCN(C(=O)C3CCN(S(=O)(=O)c4c(C)noc4/C=C/c4ccccc4F)CC3)CC2)c1`: 4.47%.

As for `Cc1c(C(=O)Nc2ccccc2)sc2nc(-c3cc4cc(Cl)ccc4oc3=O)[nH]c(=O)c12`, the inhibition is 6.7%. `CCCS(=O)(=O)c1c(S(=O)(=O)CCC)c2cc(C(C)(C)C)ccn2c1C(=O)c1ccccc1`: the inhibition is -2.03%. On to `Cc1ccc(C(C(=O)NC2CCCCC2)N(Cc2ccco2)C(=O)Cc2c[nH]c3ccccc23)o1` (centres undefined), for which the inhibition is active: 36.1%. In the case of `Cc1ccccc1C(=O)Nc1ccc2nc(N3CCCCC3)cc(C)c2c1`, the inhibition was 3.32%. Regarding `COC(=O)c1ccc(NC(=O)CC2C(=O)N(c3ccccc3)C(=O)N2Cc2ccc(F)cc2)cc1` (centres undefined), the inhibition is -1.58%.

Turning to `COc1ccc(NC(=O)Cn2cc(S(=O)(=O)c3ccccc3)c(=O)c3cc4c(cc32)OCO4)cc1`, the inhibition stood at 1.19%. As to `CCN1CCc2c(sc(-n3cccc3)c2C(C)NC(=O)Nc2ccc(Br)cc2)C1` (centres undefined), the inhibition was determined as 17.1%. Next, `Cc1ccc(Cl)cc1NC(=S)N(CCCN1CCN(C)CC1)Cc1ccco1`: active: 71%; `CCCC(=O)OCc1cnc(C)c2oc(=O)c(C(=O)Nc3cccc(C(F)(F)F)c3)cc12`: -12.5%; `COc1ccc(N(Cc2cccs2)C(=O)c2ccc(OC)c(Cl)c2)cc1`: 8.67%.

Take `Cc1cccc(N2CCN(C(=O)C3CCN(S(=O)(=O)c4c(C)noc4C)CC3)CC2C)c1` (centres undefined): the inhibition was -7.24%.

For the compound `CCOC(=O)c1[nH]c(C)c(CCC(=O)NCc2ccc(CC)cc2)c1C`, the inhibition was -0.319%. On to `CCN(CC)CCNC(=O)c1cc2c(=O)n(C)c3cc(Cl)ccc3c2s1`, for which the inhibition came to 13.3%. As to `Cc1ccc(-c2ccc(=O)n(CCC(=O)NCCc3ccccc3)n2)cc1`, the inhibition is -10.9%. Next, `COc1cccc(CN2c3ccccc3-c3nc(SCC(=O)Nc4ccccc4Cl)ncc3S2(=O)=O)c1`: 18.5%; `CC(C)COc1ccc(C(=O)N2CCN(CCc3ccncc3)CC2)cc1`: -11.2%. Consider `O=C1CSC2(C(=O)N(Cc3cccc(F)c3)c3ccccc32)N1c1cccc(C(F)(F)F)c1` (centres undefined), for which the inhibition is -0.0067%. Take `COc1ccc(NC(=O)c2ccc3nc(C(C)C)oc3c2)cc1OC`: the inhibition came to 9.63%. Next, `CCC(Oc1ccc(F)cc1)C(=O)Nc1c(C(=O)c2ccc(C)cc2)oc2ccccc12` (centres undefined): -9.45%; `CCn1cc(C(=O)N2CCN(c3ccccc3)CC2)c(=O)c2cc(S(=O)(=O)N3CCOCC3)ccc21`: -7.16%; `CCn1c2c(c(=O)n3ncc(C(=O)N4CCN(c5ccc(Cl)cc5)CC4)c13)CN(Cc1ccc(OC)cc1)CC2`: 6.95%. Next, `O=C(Nc1cccc(Cl)c1)c1nc[nH]c1C(=O)N1CCc2ccccc2C1`: active: 56.4%; `COc1ccc(-c2nc3scc(CCNS(=O)(=O)c4ccc(F)cc4C)n3n2)cc1`: -6.23%.

On to `COC(=O)c1cc2oc3ccccc3c2n1Cc1ccc(Cl)cc1`, for which the inhibition was -5.32%. Turning to `CN1C(=O)c2ccccc2Sc2ccc(NC(=O)c3ccc(C(F)(F)F)cc3)cc21`, the inhibition turned out to be 10.5%. For `N#Cc1ccccc1NS(=O)(=O)c1ccc(N2CCCCS2(=O)=O)cc1`, the inhibition is -4.67%.

On to `COc1ccc(CNC(=O)CCc2c(C)c3cc4c(C)coc4c(C)c3oc2=O)cc1OC`, for which the inhibition was -9.68%. With `Cc1ccc(N2CC(NC(=O)c3cc4ccccc4o3)CC2=O)cc1` (centres undefined), the inhibition was -7.32%. For the compound `COc1ccc(NC(=O)Cn2c(=O)n(Cc3ccccc3)c(=O)c3sc4ccccc4c32)cc1`, the inhibition is 3.08%. As to `CCOc1ccc(C(=O)Nc2ccc3oc(-c4ccc5ccccc5c4)nc3c2)cc1`, the inhibition is -9.6%.

Take `CCCCNC(=O)c1cc2n(n1)CCCN(Cc1ccc(C)cc1)C2=O`: the inhibition is -21.2%. Next, `CCc1ccc(Cn2c(CNS(=O)(=O)c3ccc(C)c(C)c3)nc3cccnc32)cc1`: 6.05%; `COc1ccc(N2C(=O)CSC23C(=O)N(CC(=O)NCCc2ccccc2)c2ccccc23)cc1` (centres undefined): -9.18%. As to `O=C(CSc1nc(=O)[nH]c2c1CCCC2)NCc1ccccc1`, the inhibition was 6.2%. As to `COc1ccccc1C(=O)Nc1ccc(C(=O)OCc2cc(=O)n3nc(C4CC4)sc3n2)cc1`, the inhibition was found to be 0.611%. Next, `Cc1nn2c(C)c(C(=O)NC(C)(C)C)cnc2c1-c1ccc(F)cc1`: -4.42%; `Cc1c(C)c2cc3c(c(C)c2oc1=O)OCN(CCc1ccc(F)cc1)C3`: 0.582%. Take `OC(COc1ccc(CNCc2cccnc2)cc1)CN1CCc2ccccc2C1` (centres undefined): the inhibition was active: 48.8%. On to `CC(C)c1nn2c(=O)cc(COC(=O)c3ccco3)nc2s1`, for which the inhibition was -2.1%. Next, `COc1ccccc1N1CCN(S(=O)(=O)c2c(C)nc3sccn3c2=O)CC1`: -10%; `Cc1ccc(S(=O)(=O)c2c(O)cc(C)c(NS(=O)(=O)c3ccc(Cl)cc3)c2C)cc1`: -5.39%; `Cc1cc(C)c2sc(N3CCN(C(=O)c4ccc(N(C)C)cc4)CC3)nc2c1`: 6.16%.

Regarding `CC(OC(=O)Cn1c(C(F)(F)F)nc2ccccc21)C(N)=O` (centres undefined), the inhibition is active: 39.9%.

`CCC(C)NS(=O)(=O)c1ccc(NC(=O)c2ccc([N+](=O)[O-])cc2Cl)cc1` (centres undefined): the inhibition was active: 37.3%. As for `Cc1ccc(-c2cc3nc(-c4ccccc4)cc(C(F)(F)F)n3n2)cc1`, the inhibition was -7.45%.

Take `COc1cc(C2CC(=O)Oc3c2c(=O)[nH]c2ccccc32)cc(OC)c1OC` (centres undefined): the inhibition was -1.02%.

As for `Cc1ccc(NC(=O)C2CCN(S(=O)(=O)c3cccc4nonc34)CC2)cc1C`, the inhibition came to 8.73%. As to `CCOc1ccc(Nc2c(S(=O)(=O)c3ccccc3)cnc3ccc(F)cc23)cc1`, the inhibition is -0.0856%. On to `Cc1[nH]c2ccccc2c1C(=O)CN1CCN(C2CCCCC2)CC1`, for which the inhibition was active: 58.2%. As for `O=C(Oc1ccccc1F)c1nc(SCc2ccc(F)cc2)ncc1Cl`, the inhibition is -2.81%. `Cc1ccc(CN(C(=O)COc2cc(C)c(Cl)c(C)c2)c2ccccn2)o1`: the inhibition stood at 1.9%. Take `COc1ccc(-c2nc3scc(CCNS(=O)(=O)c4ccc5c(c4)OCCO5)n3n2)cc1`: the inhibition was -1.65%. Next, `CC(=O)N1CCc2cc(Br)cc(S(=O)(=O)CCC(=O)N3CCN(c4ccccc4Cl)CC3)c21`: -2.47%; `CCOc1ccc(-c2c(C)nn3c(C)c(C(=O)Nc4cc(C)cc(C)c4)cnc23)cc1OCC`: 13.7%; `CC(C)Sc1ncc(Cl)c(C(=O)Nc2ccc(S(=O)(=O)N3CCCCC3)cc2)n1`: 6.03%.

`CCN(CC)S(=O)(=O)c1ccc2c(c1)c(=O)c(C(=O)N1CCN(c3cc(Cl)ccc3C)CC1)cn2C`: the inhibition was determined as 9.56%. For `CC1=C(C(=O)Nc2ccc(Cl)cc2)C(c2ccccc2)n2ncc(C(=O)Nc3ccccc3)c2N1` (centres undefined), the inhibition is -2.89%. Next, `Cc1cc(C)c2c(c1)c(C)cc1nnc(SCc3ccccc3C#N)n12`: -4.34%; `Cc1ccc(NC(=O)CN2C(=O)COc3ccc(S(=O)(=O)NC4CCCC4)cc32)cc1N(C)C`: -7.42%; `Cc1ccc(C)c(Cn2c(=O)c3c(nc4n3CCN4c3ccccc3)n(C)c2=O)c1`: -12.7%. For `COc1ccc(/C=C(\C#N)C(=O)OC2CCOC2=O)cc1` (centres undefined), the inhibition was active: 33.4%. Regarding `CCSc1ncc(Cl)c(C(=O)Nc2sc3c(c2C(=O)NCCCOC)CCCC3)n1`, the inhibition was -20.8%.

Turning to `CC(=O)N1CCc2c(sc3c2c(=O)n(CCc2ccccc2)c(=O)n3Cc2ccccc2C)C1`, the inhibition is 4.65%. Take `COc1ccc(NC(=O)CSc2nc(-c3cccc(C)c3)[nH]c2-c2ccccc2)cc1OC`: the inhibition was found to be 15.4%. For `Cc1ccc(C)c(-c2ccc(=O)n(Cc3c(F)cccc3Cl)n2)c1`, the inhibition was found to be 10.5%. On to `Cc1cccc(C)c1NC(=O)CS(=O)(=O)c1nc(-c2ccc(Cl)cc2)cn1-c1ccccc1`, for which the inhibition was -11.1%. As for `CC(=O)N1CCc2cc(S(=O)(=O)NC(CC(C)C)C(=O)Nc3cc(C)cc(C)c3)ccc21` (centres undefined), the inhibition is 0.409%. For the compound `Cc1oc(-c2ccccc2Cl)nc1CSc1nc2c(c(=O)[nH]1)CCC2`, the inhibition was active: 35%. For the compound `CCC(=O)C1=C(c2ccc(C)cc2)N(C(=O)CC)n2c(nnc2C2CCCCC2)S1`, the inhibition stood at 8.6%.

On to `CC1=C(C(=O)Nc2ccccc2C)C(c2ccccn2)n2ncnc2N1` (centres undefined), for which the inhibition was found to be 10.2%. For `CCOC(=O)c1nc(NCc2ccc(Cl)cc2)c2c(C)noc2n1`, the inhibition is -8.76%. Take `Cc1c(Cl)cccc1NC(=O)CCOc1ccccc1`: the inhibition was found to be 16.9%. Next, `Cc1cccn2c(=O)c3cc(C#N)c(=O)n(-c4nnc(SCc5ccc(Cl)cc5)s4)c3nc12`: -0.636%; `CCOc1ccc(Cn2c(=O)sc3ccccc32)cc1`: -3.37%. Next, `CC1Cc2ccccc2N1C(=O)CSc1nnc(-c2ccccc2Cl)o1` (centres undefined): -3.49%. Next, `CN(C)c1ccc(CNC(=O)c2ccccc2NC(=O)c2nsc3ccccc23)cc1`: -26%.

These data come from PubChem BioAssay AID485344 (National Center for Advancing Translational Sciences (NCATS), 2010).
